Source: PubChem BioAssay AID1347428 (National Center for Advancing Translational Sciences (NCATS), 2020)
The whole screen tested about 91,000 compounds, of which about 290 (0.32%) were called active. Inconclusive results, whose numbers are uncertain, are shown with a selection of clear calls. Calls come from the whole dose curve; as a rule, active = well fitted inhibition curve with a large enough effect; inconclusive = small, poorly fitted or top-dose-only effect; inactive = no such curve, though single readings can be large or run the other way. Potencies beside an inconclusive call are fits to weak or partial responses and may not hold up.

biological target: Single-stranded DNA cytosine deaminase (Homo sapiens) (UniProt Q9GZX7); assay: Primary qHTS assay for inhibitors of Activation Induced Cytidine Deaminase (AID): AID signal; conditions: AID deamination FRET fluorescence, UDG-coupled, 4 h; series mostly up to 115 µM; note: nearly all actives have a fitted effect of over 25% in size
Potency is the fitted concentration of half-maximal effect; tags give direction and shape of the fitted curve.

Chain of UniProt Q9GZX7 (Q9GZX7 whole entry, looked up): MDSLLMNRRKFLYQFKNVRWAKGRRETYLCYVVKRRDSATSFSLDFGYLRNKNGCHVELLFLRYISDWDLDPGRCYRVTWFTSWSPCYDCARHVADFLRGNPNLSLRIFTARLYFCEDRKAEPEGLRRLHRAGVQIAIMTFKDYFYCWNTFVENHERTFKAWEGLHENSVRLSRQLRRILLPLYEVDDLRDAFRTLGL

Structure (SMILES) | Potency
Cc1ccc(Nc2c(-c3ccc(N4CCOCC4)cc3)nc3cccc(C)n23)cc1 | inconclusive: 70.8 µM [inhibitor, single point]
Cc1ccc(NC(=O)c2c(C)nc3sc(C(=O)Nc4ccc(F)cc4)c(N)c3c2-c2ccc(Cl)cc2)c(C)c1 | active: 31.6 µM
Cc1ccc(S(=O)(=O)c2cn(Cc3ccccc3)c3cc(N4CCCC4)c(F)cc3c2=O)cc1 | inconclusive: 28.2 µM [inhibitor, partial curve, poor fit]
CC(C)n1nc(C(=O)Nc2cccc(S(=O)(=O)NC3=NCCC3)c2)c2ccccc2c1=O | inactive
CCN(C(=O)CCc1nc(-c2ccc(C)cc2)no1)c1cccc(Cl)c1 | inconclusive: 20 µM [inhibitor, partial curve, poor fit]
O=C(NCc1ccccc1)c1nc(-c2ccc(Cl)cc2)n2c1CCCCC2 | inconclusive: 25.1 µM [inhibitor, partial curve, poor fit]
Cc1ccc(S(=O)(=O)N2CCc3cc(C(=O)Nc4c(C)cccc4C(C)C)ccc32)cc1 | inconclusive: 39.8 µM [inhibitor, partial curve, poor fit]
Cn1c(NCc2ccc3c(c2)OCO3)nc2c1c(=O)n(Cc1ccccc1)c(=O)n2C | inconclusive: 22.4 µM [inhibitor, partial curve, poor fit]
COc1ccc(-c2csc3nc(-c4ccc(C)cc4)oc(=O)c23)cc1OC | inconclusive: 31.6 µM [inhibitor, partial curve, poor fit]
Cc1ccccc1Nc1c(-c2c[nH]c3ccccc23)nc2cccc(C)n12 | inactive
CCOC(=O)c1ccc(NC(=O)CSc2ncc(S(=O)(=O)c3ccc(C)c(Cl)c3)c(=O)[nH]2)cc1 | inconclusive: 56.2 µM [inhibitor, partial curve, poor fit]
Clc1cccc(-n2ncc3c(NC4CCCCCC4)ncnc32)c1 | inconclusive: 25.1 µM [inhibitor, full curve, poor fit]
CCCCCCc1ccc(-c2ccc(/C=C/C(=O)O)cc2)nc1 | inactive
CCOC(=O)c1cc2c(=O)n3ccccc3nc2n(Cc2ccco2)c1=NC(=O)c1cccc(Br)c1 | inconclusive: 28.2 µM [inhibitor, partial curve]
N#Cc1cc(C(=O)c2cc(F)ccc2O)cn(C2CCCCC2)c1=O | inactive
CCOc1ccc(NC(=O)[C@@H](c2ccccc2)N2Cc3ccccc3C2=O)cc1 | inconclusive: 50.1 µM [inhibitor, partial curve]
CC(C)CN(CC(C)C)C(=S)NCc1ccco1 | inactive
CCc1cccc(-n2c(=O)c3cccnc3n2CC(=O)Nc2ccc(OC)c(Cl)c2)c1 | inconclusive: 11.2 µM [inhibitor, partial curve, poor fit]
O=S(=O)(NCc1ccc(F)cc1)c1ccc2[nH]c3c(c2c1)CCCC3 | inactive
COc1ccc(CN2CCc3nc(N4CCN(c5ccc(F)cc5)CC4)ncc3C2)c(OC)c1OC | inconclusive: 35.5 µM [inhibitor, full curve]
O=C(c1cnn(-c2ccc(F)cc2)c1-n1cccc1)N1CCN(c2cccc(Cl)c2)CC1 | inconclusive: 35.5 µM [inhibitor, single point]

Structure (SMILES) | Potency
COc1cccc(NC(=O)Cn2nc(-c3ccncc3)ccc2=O)c1 | inconclusive: 31.6 µM [inhibitor, partial curve, poor fit]
Cc1ccc(/C=N/c2sc(C)c(C)c2C#N)cc1 | inactive
Cc1cc2c(cc3c(SCc4cccc(Cl)c4)nnc(C)n32)o1 | inconclusive: 50.1 µM [inhibitor, partial curve, poor fit]
COc1cccc(N2CCN(C(=O)c3ccc4c(Cl)c5c(nc4c3)CCCC5)CC2)c1 | active: 20 µM
COc1ccc(NC(=O)Cn2cc(S(=O)(=O)c3ccccc3)c(=O)c3cc(C)ccc32)cc1Cl | inconclusive: 12.6 µM [inhibitor, partial curve, poor fit]
NNc1nncc2ccccc12 | active: 44.7 µM
Cc1ccccc1-c1cc(=O)c2cc(NC(=O)c3ccncc3)ccc2o1 | inactive
O=C1CCSC2(C(=O)N(Cc3ccccc3)c3ccccc32)N1c1ccccc1 (stereo unspecified) | inconclusive: 70.8 µM [inhibitor, single point]
S=C(NN=C1CCCCCCCCCCC1)NC1CCCCC1 | inactive
Cc1c(C(=O)c2cccc(C(F)(F)F)c2)c2ccccn2c1CCC#N | inactive
CCc1ccc(CNC(=O)C2CCN(C(=O)c3ccc(-n4c(C)cc5ccccc54)s3)CC2)cc1 | inconclusive: 3.55 µM [inhibitor, full curve, poor fit]
Cc1ccc2nc(/C(C#N)=C/c3ccc(-c4ccc(C(=O)OC(C)C)cc4)o3)[nH]c2c1 | inconclusive: 89.1 µM [inhibitor, partial curve, poor fit]
CCc1ccc(N(Cc2cccs2)C(=O)c2cccs2)cc1 | inconclusive: 31.6 µM [inhibitor, partial curve, poor fit]
CCN(C(=O)C1CCCN(S(=O)(=O)c2c(C)noc2/C=C/N(C)C)C1)c1cccc(C)c1 (stereo unspecified) | inconclusive: 79.4 µM [inhibitor, single point]
Cc1ccc(NC(=O)Nc2ccc3snnc3c2)cc1C | inconclusive: 112 µM [inhibitor, partial curve, poor fit]
COc1ccc(Br)cc1CNC(=O)c1cc2n(n1)CCCN(Cc1ccc(C)cc1)C2=O | inconclusive: 56.2 µM [inhibitor, partial curve, poor fit]
Cc1nc(Oc2ccc(F)cc2Cl)c2oc3ccccc3c2n1 | inconclusive: 56.2 µM [inhibitor, partial curve, poor fit]
Cc1ccc(C)c(NC(=O)Cn2nc(C)c3ccccc32)c1 | inactive
CCC(C)NC(=O)c1ccccc1NC(=O)CN1C(=O)c2cccc3cccc1c23 (stereo unspecified) | inconclusive: 14.1 µM [inhibitor, partial curve, poor fit]
Cc1ccc(C2c3[nH]c4ccccc4c3CCN2C(=O)c2cccc(C)c2)cc1 (stereo unspecified) | inconclusive: 28.2 µM [inhibitor, partial curve, poor fit]
